In paper PMC4336329 (PLoS ONE, 2015):
The whole screen tested about 310,000 compounds, of which about 14,000 (4.5%) showed an effect of 50% or more. Effects have a minus sign here. This is one part of the list.

The compounds below were run against human ether-à-go-go-related gene (hERG) potassium channel (human, UniProt Q12809) (assay: primary screen, population patch clamp on CHO cells stably expressing hERG).
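Further: peak tail current of the secondary pulse compared with the same well before compound.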

Sequence of human ether-à-go-go-related gene (hERG) potassium channel (Q12809 whole entry, looked up): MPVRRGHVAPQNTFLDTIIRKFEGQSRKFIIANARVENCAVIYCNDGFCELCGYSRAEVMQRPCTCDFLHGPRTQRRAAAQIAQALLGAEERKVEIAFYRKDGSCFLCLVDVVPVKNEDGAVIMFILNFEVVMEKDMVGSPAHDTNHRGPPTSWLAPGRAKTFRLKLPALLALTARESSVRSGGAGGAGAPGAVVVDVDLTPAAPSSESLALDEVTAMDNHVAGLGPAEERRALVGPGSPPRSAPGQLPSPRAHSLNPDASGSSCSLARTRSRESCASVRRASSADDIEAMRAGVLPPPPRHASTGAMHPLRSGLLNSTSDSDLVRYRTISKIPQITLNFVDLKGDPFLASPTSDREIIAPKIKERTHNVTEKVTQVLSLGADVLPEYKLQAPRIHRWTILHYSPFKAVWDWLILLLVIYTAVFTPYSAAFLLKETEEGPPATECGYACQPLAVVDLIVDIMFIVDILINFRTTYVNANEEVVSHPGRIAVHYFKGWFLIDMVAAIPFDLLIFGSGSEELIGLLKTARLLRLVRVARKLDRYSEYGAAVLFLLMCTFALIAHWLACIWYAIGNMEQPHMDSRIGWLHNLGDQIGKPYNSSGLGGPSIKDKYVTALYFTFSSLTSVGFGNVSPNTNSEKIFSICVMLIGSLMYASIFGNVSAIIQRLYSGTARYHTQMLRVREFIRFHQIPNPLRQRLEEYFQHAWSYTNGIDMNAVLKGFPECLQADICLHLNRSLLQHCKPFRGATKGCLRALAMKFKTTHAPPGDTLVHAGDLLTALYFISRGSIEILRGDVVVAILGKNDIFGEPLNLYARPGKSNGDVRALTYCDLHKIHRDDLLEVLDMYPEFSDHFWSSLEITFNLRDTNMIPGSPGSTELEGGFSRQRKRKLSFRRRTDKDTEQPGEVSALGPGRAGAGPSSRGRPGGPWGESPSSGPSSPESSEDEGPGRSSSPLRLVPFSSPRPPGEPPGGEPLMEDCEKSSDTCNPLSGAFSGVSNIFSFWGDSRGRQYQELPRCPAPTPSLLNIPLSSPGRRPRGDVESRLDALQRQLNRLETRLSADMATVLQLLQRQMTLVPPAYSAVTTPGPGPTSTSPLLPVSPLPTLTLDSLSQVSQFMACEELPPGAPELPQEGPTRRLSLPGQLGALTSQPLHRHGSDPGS

| SMILES | hERG current change (%, negative = inhibition) at 10uM [%] |
| --- | --- |
| O=S(=O)(NC1CCCCCC1)c1cccc2cccnc12 | 5.29 |
| Cn1nnnc1SCC(=O)NCc1ccccc1 | -5.7 |
| COCCN(Cc1cc2cc(C)ccc2n2nnnc12)C(=S)Nc1ccccc1C | 13.4 |
| Brc1ccc(/C=C/C=N/Nc2nc3ccccc3s2)cc1 | -0.665 |
| CC(C)C1Oc2ccccc2N(CC(=O)N(Cc2ccncc2)Cc2ccco2)C1=O (stereo not shown) | -46.2 |
| O=C(O)COc1ccccc1/C=N/Nc1ccc(S(=O)(=O)N2CCOCC2)cc1[N+](=O)[O-] | 11.8 |
| CC(=O)c1cccc(OCc2cc(C(=O)N(C)CCc3ccccn3)no2)c1 | -13.6 |
| CCC[n+]1c2ccccc2cc2ccccc21.[I-] | 23.7 |
| Cc1ccc(C(=O)N2CCC(C(=O)Nc3cccc([N+](=O)[O-])c3)CC2)cc1 | -80.1 |
| Cc1cccc(COc2ncnc3nc[nH]c23)c1 | -6.73 |
| Cc1cc2cc(CNC(=O)c3ccc(S(=O)(=O)N4CCCCC4)cc3)ccc2n1C | 10.9 |
| CCCCOC(=O)CSC1=C(C#N)C(c2cccnc2)C(C(=O)OCC)=C(c2ccccc2)N1 (stereo not shown) | -42.4 |
| O=C(CNC(=O)c1ccc(F)cc1)N/N=C/c1cccnc1 | 18.2 |
| CCN(CC)S(=O)(=O)c1ccc(N2CCOCC2)c(NC(=O)c2cccc(C#N)c2)c1 | -38.3 |
| COC(=O)C1=C(c2c(C)noc2C)C[C@@H]2CC[C@H]1N2C(=O)NC1CCCCC1 | 9.72 |
| CCc1ccc(OCC(=O)OC(C)C(=O)NC2CC2)cc1 (stereo not shown) | 7.29 |
| CCOC(=O)c1cc(CNC(=O)c2c(C)oc3c2CCCC3)c(C)o1 | -2.05 |
| COc1cccc(NC(=S)N2c3ccccc3CC2C)c1 (stereo not shown) | -5.33 |
| Cc1nn(CC(=O)NCc2ccccn2)c(C)c1[N+](=O)[O-] | -10.9 |
| COc1ccc(/C=C/C(=O)NCC(=O)N/N=C(/CCC(=O)O)c2ccccc2)cc1 | 0.514 |
| O=C(O)CCNC(=O)c1ccc(NC(=O)C(c2ccccc2)c2ccccc2)cc1 | 19.1 |
| COc1ccc(-n2c(CN3CCN(c4ccccc4)CC3)nc3ccc([N+](=O)[O-])cc3c2=O)c(OC)c1 | -10.8 |

| SMILES | hERG current change (%, negative = inhibition) at 10uM [%] |
| --- | --- |
| COc1cccc(C(=O)Nc2ccc3nc4n(c(=O)c3c2)CCCC4)c1 | -62.9 |
| COc1ccc(OC)c(-c2csc(N(Cc3ccco3)C(=O)c3ccco3)n2)c1 | 7.74 |
| O=c1[nH][nH]cc1C=NCc1cccc(C(F)(F)F)c1 | 7.64 |
| COc1ccc(CN2CCN(CCc3ccccc3)C(CCO)C2)c(O)c1 (stereo not shown) | -71.7 |
| N#CC(Sc1ccccn1)c1ccc(Cl)cc1 (stereo not shown) | -18.2 |
| NC(N)=NS(=O)(=O)c1ccc(NC(=S)NC(=O)c2ccc(Br)cc2)cc1 | 4.88 |
| O=C(CSc1nc(C2CC2)nc2c1cnn2-c1ccccc1)Nc1c[nH]c(=O)[nH]c1=O | 13.5 |
| O=C1Nc2cc(C(=O)N3CCOCC3)ccc2S/C1=C\c1ccccc1 | 6.71 |
| CCOC(=O)/C=c1\s/c(=C\c2ccc3cc(OC)ccc3c2)c(=O)n1CC(=O)NCC1CCCO1 (stereo not shown) | 12.9 |
| Cc1cc(C)nc(N2CCC(C(=O)Nc3ccc4c(c3)CCC4)CC2)n1 | 17.3 |
| COc1ccccc1NC(=O)COc1ccc(C(=O)NC2CCCc3ccccc32)cc1OC (stereo not shown) | 18.7 |
| COc1ccc(C(=O)N(C)C2CCCN(Cc3ccccc3F)C2)cc1OC (stereo not shown) | 11.1 |
| CCCCC1CCCOC(C(=O)NCCNCCO)(C(F)(F)F)C1 (stereo not shown) | 6.03 |
| O=C1C2CC=C(Cl)CC2C(=O)N1CCC[n+]1ccccc1.[Br-] (stereo not shown) | -7.87 |
| NNC(=O)CC1NCCN(Cc2ccccc2)C1=O (stereo not shown) | 29.7 |
| CCCC(=NCc1ccccc1)C1=C(O)C(C(=O)OC)C(C)(C)CC1=O (stereo not shown) | -6.07 |
| CCOc1cc(CNCCc2ccccc2)ccc1OCC(=O)NC(C)(C)C.Cl | -12.6 |
| O=C1c2cccnc2C(O)N1Cc1ccco1 (stereo not shown) | -1.24 |
| CC(=O)Nc1cccc(C(=O)/C=C/c2ccc(Br)cc2)c1 | -11.9 |
| O=C(Nc1ccccc1-c1ccccc1)NC1CC2CCCC(C1)N2CCc1ccccc1 (stereo not shown) | -53.3 |
| COC(=O)c1cn(NC(=O)C2CCC(C(C)(C)C)CC2)c(=O)c2ccccc12 (stereo not shown) | 13.7 |
